The record followed here is publication PMC4336329 (PLoS ONE, 2015).

Screen size: about 310,000 compounds; about 2,200 (0.71%) showed an effect of 50% or more. Effects have a minus sign here. This is one part of the list.

The target in the test is human ether-à-go-go-related gene (hERG) potassium channel (human, UniProt Q12809). Kind of test: primary screen, population patch clamp on CHO cells stably expressing hERG.
Chain of human ether-à-go-go-related gene (hERG) potassium channel (Q12809 whole entry, looked up): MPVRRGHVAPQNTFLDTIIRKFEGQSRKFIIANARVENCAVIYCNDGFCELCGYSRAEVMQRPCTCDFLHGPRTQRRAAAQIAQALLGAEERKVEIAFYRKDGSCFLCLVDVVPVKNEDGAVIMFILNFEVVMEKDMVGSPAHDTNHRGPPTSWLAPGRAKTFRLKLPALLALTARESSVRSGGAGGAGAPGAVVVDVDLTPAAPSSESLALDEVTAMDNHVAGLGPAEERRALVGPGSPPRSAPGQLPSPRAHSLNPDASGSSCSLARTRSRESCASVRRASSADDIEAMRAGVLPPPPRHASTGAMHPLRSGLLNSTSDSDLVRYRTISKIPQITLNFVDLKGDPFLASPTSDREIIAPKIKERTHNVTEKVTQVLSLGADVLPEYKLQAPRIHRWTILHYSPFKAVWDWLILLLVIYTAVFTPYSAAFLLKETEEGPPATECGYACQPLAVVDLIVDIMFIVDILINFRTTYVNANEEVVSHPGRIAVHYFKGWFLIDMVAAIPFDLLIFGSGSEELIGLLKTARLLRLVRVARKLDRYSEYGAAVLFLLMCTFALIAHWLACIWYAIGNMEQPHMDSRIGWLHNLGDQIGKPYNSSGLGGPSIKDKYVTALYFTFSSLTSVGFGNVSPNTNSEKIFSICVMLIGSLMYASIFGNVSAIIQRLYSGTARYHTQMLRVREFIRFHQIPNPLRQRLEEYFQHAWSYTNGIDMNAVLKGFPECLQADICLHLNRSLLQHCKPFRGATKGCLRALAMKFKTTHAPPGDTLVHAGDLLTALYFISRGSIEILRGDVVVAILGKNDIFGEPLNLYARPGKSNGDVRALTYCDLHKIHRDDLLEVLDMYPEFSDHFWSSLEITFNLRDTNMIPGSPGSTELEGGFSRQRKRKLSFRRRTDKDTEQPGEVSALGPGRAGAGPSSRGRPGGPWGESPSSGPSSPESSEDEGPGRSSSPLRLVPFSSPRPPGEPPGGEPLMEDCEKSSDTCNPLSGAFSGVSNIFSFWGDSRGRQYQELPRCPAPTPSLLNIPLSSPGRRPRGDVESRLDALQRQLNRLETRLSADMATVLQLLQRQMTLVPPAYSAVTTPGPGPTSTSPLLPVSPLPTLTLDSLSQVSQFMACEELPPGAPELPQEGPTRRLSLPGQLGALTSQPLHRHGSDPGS
Turning to `CC(C)NC(NC(=O)Cc1ccccc1)C(Cl)(Cl)Cl` (stereo not shown), the “hERG current change (%, negative = inhibition) at 1uM” value was 18.1%.
For the compound `COc1cc(OC)c(C2C(C#N)=C(C)NC(C)=C2C#N)c(C(=O)O)c1`, the “hERG current change (%, negative = inhibition) at 1uM” value was found to be 14%.
The figure for `C/C(=N\NC(=O)CSc1nc2nc(C)cc(C)n2n1)c1ccccc1` is -6.54%; for `CCCCNC(=O)CSc1nc(O)cc(=O)n1C1CCCC1` it is 1.53%.
The figure for `NS(=O)(=O)c1ccc(CCNC(=O)CN2CCN(c3cccc(Cl)c3)CC2)cc1` is -3.34%; for `Cc1cccc(-n2cnc(C(=O)N/N=C/c3ccccc3)c2)n1` it is 9.93%; for `C/C=C1\COC(C(=O)NCc2ccccc2)(C(F)(F)F)C=C1C=C(C)C` (stereo not shown) it is 8.32%.
The same measure for `CCOc1ccccc1/C=C(/C#N)C(N)=O`: 7.24%.
For `CCc1nnc(NC(=O)CN2C(=O)NC3(CC(C)CC(C)(C)C3)C2=O)s1` (stereo not shown), the “hERG current change (%, negative = inhibition) at 1uM” value came out at 11.3%.
`COc1ccc(OCCN(C)CC(=O)Nc2c(C)cccc2C)cc1.O=C(O)C(=O)O`: the “hERG current change (%, negative = inhibition) at 1uM” value was determined as 7.39%.
The same measure for `CCc1ccc2nc(N(CCCN(C)C)C(=O)c3ccc(S(=O)(=O)N4CCCc5ccccc54)cc3)sc2c1.Cl`: 6.07%.
For the compound `CSc1ccc(/C=N\Nc2nncn2N)cc1.Cl`, the “hERG current change (%, negative = inhibition) at 1uM” value was determined as 13.8%.
The figure for `Cc1cc(C(=O)O)ccc1-c1ccc(/C=C2\SC(=O)N(CC(=O)Nc3ccc4c(c3)OCO4)C2=O)o1` is 12.8%; for `Cc1cc(=O)oc2cc(OCC(=O)N3CCN(C(C)c4ccccc4)CC3)c(Cl)cc12` (stereo not shown) it is 4.74%; for `CC(=O)NCCc1nc(-c2ccc(Cl)cc2)no1` it is 10.3%.
The same measure for `COCc1c(C(=O)OCC(=O)N2c3ccccc3CC2C)oc2ccccc12` (stereo not shown): 13.9%.
Consider `COc1ccc(-c2nc(C)ncc2-c2ccc(Cl)cc2)c(O)c1`, for which the “hERG current change (%, negative = inhibition) at 1uM” value was -5.49%.
For the compound `O=C(COC(=O)c1c2ccccc2cc2ccccc12)Nc1ncc(C(F)(F)F)cc1Cl`, the “hERG current change (%, negative = inhibition) at 1uM” value was 3.82%.
The same measure for `CCOC(=O)c1c(C)n(C)c2ccc(OC)c(NC(=O)CN3CCC4(CC3)OCCO4)c12`: 3.27%.
Regarding `CN(CC(=O)Nc1ccccc1C(F)(F)F)C(=O)CN1C(=O)C2CCCCC2C1=O` (stereo not shown), the “hERG current change (%, negative = inhibition) at 1uM” value worked out at 12.5%.
For `C/C(=N/NC(=O)c1ccc(Br)o1)C(C)C`, the “hERG current change (%, negative = inhibition) at 1uM” value stood at 7.95%.
The figure for `COc1ccc(C/C(=N\O)c2ccc(OC)cc2)cc1` is 10.3%.
For `O=C(NCCCCc1ccccc1)c1ccc(F)cc1`, the “hERG current change (%, negative = inhibition) at 1uM” value was 6.87%.
Regarding `Cc1cccc(N2CCN(C(=O)CCS(=O)(=O)c3ccc4c(c3)oc(=O)n4C)CC2)c1C`, the “hERG current change (%, negative = inhibition) at 1uM” value amounted to 1.7%.
On to `CC(C)(O)C#Cc1ccc(CN2CCC(n3nccc3NC(=O)C3CC3)CC2)cc1`, for which the “hERG current change (%, negative = inhibition) at 1uM” value worked out at 6.7%.
The same measure for `CN(c1ccc(OCC(=O)N2CCOCC2)cc1)S(=O)(=O)c1ccc(F)cc1`: 9.65%.
Consider `CCCCCCCCC(=O)NC(NC(=S)N1CCOCC1)C(Cl)(Cl)Cl` (stereo not shown), for which the “hERG current change (%, negative = inhibition) at 1uM” value worked out at 12.2%.
The same measure for `CC(C)=CC(=O)N1CCCC(N2CCN(c3ccc(F)cc3)CC2)C1` (stereo not shown): 19.1%; for `Clc1ccc(SCc2cc(N3CCOCC3)nc(-c3ccccn3)n2)cc1`: -1.17%.
For the compound `Cc1ccc(Cn2c(SCc3cccnc3)nc3c2c(=O)n(C)c(=O)n3C)cc1`, the “hERG current change (%, negative = inhibition) at 1uM” value amounted to 10.4%.
The same measure for `O=C(NNC(=O)c1ccccc1OCc1ccccc1)c1ccccc1F`: 14.9%; for `CCCNC(=O)c1onc(CSc2ccc(F)c(F)c2)c1C(=O)NCCC`: -9.42%; for `CCOC(=O)c1cc(NC(=O)C2C3CCC(O3)C2C(=O)O)cc(C(=O)OCC)c1` (stereo not shown): -0.572%.
The same measure for `Cc1cc(C)c(NC(=O)CSc2ccc3nnc(CCNC(=O)c4ccccc4)n3n2)c(C)c1`: 11.5%; for `O=C(c1cc(F)ccc1F)C1CCCN(C(=O)CCc2cnccn2)C1` (stereo not shown): 9.15%; for `Cn1c(COc2ccc([N+](=O)[O-])cc2)nnc1SCC(=O)NCC1CCCO1` (stereo not shown): 6.05%.
Consider `CC(C)(C)OC(=O)N[C@H](C(=O)OC(C)(C)C)c1ccc2c(c1)OCO2`, for which the “hERG current change (%, negative = inhibition) at 1uM” value turned out to be 2.84%.
With `COc1cc(F)ccc1S(=O)(=O)N1CCN(Cc2ccccc2)CC1`, the “hERG current change (%, negative = inhibition) at 1uM” value was determined as 4.64%.
For `C=CCNC(=O)/C(C#N)=C/c1c(C)nn(-c2ccc(Cl)cc2)c1Cl`, the “hERG current change (%, negative = inhibition) at 1uM” value worked out at 13.4%.
On to `CCSc1nc(-c2ccccc2)nc(C(Cl)Cl)n1`, for which the “hERG current change (%, negative = inhibition) at 1uM” value is 1.76%.
The figure for `Cc1ccc(CN2CC(=O)N3[C@H]4c5cc(C)ccc5OC[C@@H]4[C@H](c4ccccc4)[C@]3(C)C2=O)cc1` is 11.3%; for `CN1CCC(N(C)C(=S)Nc2ccc(F)cc2)CC1` it is 11.4%; for `CC1CN(CCCCSc2ccccc2)CC(C)O1.Cl` (stereo not shown) it is 9.79%.
In the case of `c1ccc2oc(-c3[nH]ncc3CN3CCSCC3)cc2c1`, the “hERG current change (%, negative = inhibition) at 1uM” value worked out at 9.72%.
As to `COc1ccc(S(=O)(=O)NCC(=O)N(CC(=O)NCC2CCCO2)Cc2ccc(F)cc2)cc1` (stereo not shown), the “hERG current change (%, negative = inhibition) at 1uM” value is 6.74%.
Turning to `Cc1ccc(C(=O)CSc2ccccc2C(=O)O)cc1`, the “hERG current change (%, negative = inhibition) at 1uM” value is 7.05%.
The figure for `CC1=CC(=C2C(=O)NC(=O)NC2=O)C=C(C(F)(F)F)N1Cc1ccccc1` is 11.4%; for `CC(C)n1cc(CN2CCN(C)C(CCO)C2)c2ccccc21` (stereo not shown) it is 12%.
The figure for `Cc1ccc(NC(=S)NNC(=O)Cn2nc([N+](=O)[O-])cc2C)cc1` is 18.7%; for `COc1cc(/C=N/NC(=O)c2ccc(O)cc2)ccc1OCC(=O)Nc1cccc([N+](=O)[O-])c1` it is 10.8%; for `CN(C)/N=C/c1ccc(Sc2ccccc2[N+](=O)[O-])o1` it is 15.6%.
Consider `Cc1ccc(C2C3=C(CCCC3=O)N=C3c4ccccc4C(=O)C32)cc1` (stereo not shown), for which the “hERG current change (%, negative = inhibition) at 1uM” value is reported as 7.26%.
Take `O=c1c(-c2nc3ccccc3s2)cccn1Cc1ccc(Cl)cc1`: the “hERG current change (%, negative = inhibition) at 1uM” value was determined as 4.91%.
The figure for `COC(=O)c1ccc(C)c(NC(=O)CN2C(=O)c3ccccc3S2(=O)=O)c1` is 9.39%; for `Cc1cccnc1NS(=O)(=O)c1cccc([N+](=O)[O-])c1` it is 6.18%; for `COc1ccc([N+](=O)[O-])cc1NC(=O)CCN1CCOCC1` it is 4.67%.
The same measure for `CC(=O)Nc1cc[n+](C(C)C(=O)c2ccccc2)cc1.[Cl-]` (stereo not shown): 12.2%; for `Cc1cc(Nc2cccc(C(=O)O)c2)n2ncnc2n1`: 12.7%; for `COc1cc(C(=O)NCC(=O)OCc2cc(=O)oc3c(C)c(C)ccc23)cc(OC)c1OC`: 4.1%.
Regarding `CCCCCCn1c(SCC(=O)Nc2cc(C)on2)nc2ccccc2c1=O`, the “hERG current change (%, negative = inhibition) at 1uM” value is reported as -2.67%.
Take `Cc1c(NC(=O)c2noc(C(C)C)c2[N+](=O)[O-])c(=O)n(-c2ccccc2)n1C`: the “hERG current change (%, negative = inhibition) at 1uM” value stood at 18.4%.
Consider `COc1cc2c(cc1OC)C(=O)CC(C)S2` (stereo not shown), for which the “hERG current change (%, negative = inhibition) at 1uM” value is 17.9%.
The figure for `CCc1cc2c(=O)c(-c3nc4ccccc4n3C)coc2c(CN2CCOCC2)c1O` is 5.17%; for `CCN(CC)C(=S)NC(=O)c1cc(OC)c(OC)c(OC)c1` it is 17.6%; for `O=[N+]([O-])c1cccc(/C=C/c2ccc3cccc(O)c3n2)c1` it is 4.16%.
`C/C(=N\NC(=O)c1ccncc1)c1cc2ccccc2o1`: the “hERG current change (%, negative = inhibition) at 1uM” value was 7.82%.
The same measure for `CCOC(=O)c1c(C)[nH]c(C)c1C=O`: 11.8%; for `CCN(C(=O)COC(=O)c1cnc(C)cn1)C1CCCCC1`: -2.34%.
The figure for `COC(=O)c1cccc(NC(=S)NCc2ccco2)c1` is 8.98%; for `CC(C)NC(=O)CSc1ccccc1C(=O)NNC(=O)Cn1ccc(C(F)(F)F)n1` it is 6.88%; for `CCN(CC)CCN(Cc1cc2ccc(C)cc2[nH]c1=O)C(=S)Nc1ccccc1C(=O)OC` it is -40.2%.
The same measure for `CCCCn1c(SCC(=O)NCCc2ccc(OC)c(OC)c2)nc2c1c(=O)n(C)c(=O)n2C`: -0.0812%; for `Fc1ccc(N/N=C/C=C/c2ccccc2)c(F)c1`: 4.46%.
On to `COc1ccc(NC2CCCN(C(=O)c3ccc(C)c(N4CCNC4=O)c3)C2)cc1` (stereo not shown), for which the “hERG current change (%, negative = inhibition) at 1uM” value is recorded as 13.1%.
The figure for `CNC(=S)N1N=C(c2ccc(C)cc2)CC1c1ccc(Br)cc1` (stereo not shown) is 1.14%; for `COc1cc(NC(=O)CCC2CCCC2)cc(-n2cnnn2)c1` it is 6.77%.
In the case of `CCc1c(C(=O)NCCc2cccc(C)c2)[nH]c(C)c1C(C)=O`, the “hERG current change (%, negative = inhibition) at 1uM” value turned out to be 6.8%.
Regarding `CCOCCCNC(=O)C1(O)c2ccccc2NC(=O)N1c1ccc(Cl)c(Cl)c1` (stereo not shown), the “hERG current change (%, negative = inhibition) at 1uM” value was found to be 5.79%.
For `O=C(/C=C/c1cccs1)NC(=S)NNC(=O)Cc1cccs1`, the “hERG current change (%, negative = inhibition) at 1uM” value was determined as 22.7%.
The figure for `CCn1c(=S)[nH]c2sc3c(c2c1=O)CCCC3` is 18.2%; for `C=C[C@@H]1c2c(F)cccc2N(S(=O)(=O)c2ccc(C)cc2)[C@H](c2ccc(OC(C)=O)cc2)C1(C#N)C#N` it is 7.82%; for `COC(=O)c1nc(NC(=O)c2ccccc2Cl)n[nH]1` it is 16.2%.
The figure for `CCNC(=O)COc1ccc(C=O)cc1OC` is 13.3%; for `Cc1ccc(-c2nc3ccccc3s2)cc1S(=O)(=O)N1CCCC1` it is -5.41%.
On to `CC(OC(=O)c1ccc(Cl)c(S(=O)(=O)N2CCOCC2)c1)C(=O)NC1CCCCC1C` (stereo not shown), for which the “hERG current change (%, negative = inhibition) at 1uM” value worked out at 9.4%.
As for `COCCNC(=O)Cc1c(C)c2c(cc(C)c3c(C(C)(C)C)coc32)oc1=O`, the “hERG current change (%, negative = inhibition) at 1uM” value came to 12.8%.
The figure for `CCCS(=O)(=O)N1CCC(C(=O)NCCCOC(C)C)CC1` is 9.38%; for `CCOC(=O)C1=C(C)N(CCCCCC(=O)O)C(=O)NC1c1ccc(Cl)cc1` (stereo not shown) it is 13.9%.
